The campaign covered roughly 94,000 compounds. About 6,200 (6.6%) were called active. Inconclusive means that the source gave no clear call. Such entries were picked first, then a sample of the others. The call rests on the fitted dose curve; in most records, active means well fitted inhibition curve with a large enough effect; inconclusive means small, poorly fitted or top-dose-only effect; inactive means flat fitted curve, though single readings scatter. Where the call is inconclusive, the potency comes from a doubtful curve fit.
assay: Cytotoxic Profiling in HEK 293 Cell Line of Diverse Libraries Using Quantitative High-Throughput Screening; conditions: HEK 293 viability, ATP luminescence (CellTiter-Glo), 48-72 h; activity change, negative = cytotoxicity: at 115 µM (top of the series) unless noted; series mostly up to 115 µM; further: nearly all actives have a fitted effect of over 60% in size
In short: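 Cells seeded first (HEK 293, 250 cells/well), then compound added by pintool. Incubation ran 48 or 72 hr at 37 degree Celsius. CellTiter-Glo was added and luminescence imaged after 10 min at room temperature.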
On the % scale 0 is the no-effect control and ±100 the full control effect; potency means the concentration at half of the fitted maximal effect; tags describe the fitted curve by direction and shape.

Compound | Potency | activity change, negative = cytotoxicity | outcome
CC1(C(=O)Nc2ccc(F)cc2)CN(Cc2ccccc2)Cc2ccc(N3CCOCC3)nc21 (stereo not drawn) | inconclusive: 31.6 µM [inhibitor, full curve] | – | –
COc1ccc(C(=O)NCc2nnc3cc(-c4nc(C(C)C)no4)ccn23)cc1F | – | inactive: -32.9% | –
O=C(NC1CC1)c1cc2n(n1)CC(c1ccc3c(c1)OCO3)OC2 (stereo not drawn) | – | inactive: -28% | –
CC(C)N1Cc2cc(C(=O)NC3CCN(Cc4ccccc4)CC3)sc2C1 | inconclusive: 79.4 µM [inhibitor, partial curve, poor fit] | – | –
CNC(=O)c1cc(C2CC2)nc2c1c(C1CCN(C(=O)N(C)C)C1)nn2C (stereo not drawn) | – | inactive: -1.19% | –
O=C(c1cc(F)ccc1F)N1CCC[C@H]1c1nc(-c2ccccc2)no1 | inconclusive: 39.8 µM [inhibitor, partial curve] | – | –
CC(C)CCN1CCC(N2CCN(S(=O)(=O)c3ccc4c(c3)CCC4)CC2)C1=O (stereo not drawn) | inconclusive: 89.1 µM [inhibitor, single point] | – | –
COc1ccc(NC(=O)c2ccc3oc(-c4ccncc4)nc3c2)cc1 | – | inactive: -18.8% | –
CCCCCC(=O)Nc1nc2c(s1)C[C@@H]1[C@](C)(CO)[C@H](O)CC[C@@]1(C)[C@@H]2CC(=O)NCCc1ccc(OC)c(OC)c1 | – | inactive: -8.01% | –
COc1cc(-c2nc3c([nH]2)CC(c2ccccc2OC)CNC3=O)ccc1O (stereo not drawn) | inconclusive: 89.1 µM [inhibitor, single point] | – | –
CCn1cnnc1-c1nn(C)c2c1CN(C(=O)CCC1CCCC1)CC2 | – | inactive: -17.4% | –
O=C(NC1CC1)c1ccccc1OC1CN(Cc2ccc(F)cc2)C1 | inconclusive: 50.1 µM [inhibitor, partial curve, poor fit] | – | –
Cc1cc(C)c(CNC(=O)c2nc(-c3cccc(CO)c3)cc3c2ccn3C(C)C)c(=O)[nH]1 | inconclusive: 56.2 µM [inhibitor, partial curve, poor fit] | – | –
O=[S+]([O-])(c1ccccc1)N1CCN(c2nccc(Nc3ccccc3Cl)n2)CC1 | inconclusive: 22.4 µM [inhibitor, full curve] | – | –
CN1C(=O)c2cccn2CC1CNC(=O)NC1CCCC1 (stereo not drawn) | – | inactive: 1.44% | –
COc1ccc(-c2ccccc2C(=O)NCC2CCCCC2)nn1 | inconclusive: 112 µM [inhibitor, single point] | – | –
COc1ccccc1NC(=O)Cn1ccn2nc3c(c2c1=O)CCCC3 | inconclusive: 56.2 µM [inhibitor, partial curve, poor fit] | – | –
CS(=O)(=O)Nc1ccc(C2(C(=O)NCc3ccc4c(c3)OCO4)CCCCC2)cc1 | inconclusive: 50.1 µM [inhibitor, partial curve, poor fit] | – | –
CC(C)c1nc2c(c(-c3ccc(Cl)cc3)n1)CCN([S+](=O)([O-])c1cccs1)CC2 | inconclusive: 50.1 µM [inhibitor, partial curve, poor fit] | – | –
O=C(c1ccncc1)N1CC2CCC(C1)N2Cc1ccc(-c2cccs2)cc1 | inconclusive: 25.1 µM [inhibitor, partial curve, poor fit] | – | –
CCOC(=O)N[C@H]1[C@H](OC(=O)Nc2ccccc2)[C@@H]2O[C@H]1c1ccccc12 | inconclusive: 28.2 µM [inhibitor, partial curve, poor fit] | – | –

Compound | Potency | activity change, negative = cytotoxicity | outcome
CC1(COCC2CC2)COc2ccc(C(=O)Nc3ccc4[nH]ccc4c3)cc2N1 (stereo not drawn) | inconclusive: 100 µM [inhibitor, partial curve, poor fit] | – | –
COc1ccc(CNC(=O)N2CCCC(CN3CCCC3)CC2)cc1 (stereo not drawn) | inconclusive: 89.1 µM [inhibitor, single point] | – | –
COCC(=O)N[C@H]1C[C@H]2C(=O)Nc3ccc(-c4cccs4)cc3C(=O)N2C1 | inconclusive: 126 µM [inhibitor, single point] | – | –
CC1CCC2(CC1)OCC(C(=O)NCc1ccccc1F)N2C(=O)c1ccccc1F (stereo not drawn) | active: 79.4 µM | – | –
O=C(C[C@@H]1O[C@H](CNS(=O)(=O)c2ccc(Cl)cc2)[C@@H](O)[C@H]1O)NC1CC1 | – | inactive: -5.07% [at 172 µM] | –
COc1ccccc1Nc1ncc2c(n1)CN(C(=O)Cc1cccc(F)c1)CCN2 | inconclusive: 112 µM [inhibitor, partial curve] | – | –
CC(C)NC(=O)N[C@H]1C[C@@H](C(=O)N[C@H](Cc2c[nH]c3ccccc23)C(N)=O)N(C(=O)c2cccn2C)C1 | – | inactive: -9.75% | –
CN1CC(=O)N(c2ccccc2F)Cc2c(NCc3cccc(C(F)(F)F)c3)ncnc21 | inconclusive: 89.1 µM [inhibitor, single point] | – | –
Cc1ccc(NC(=O)N2CCCCC2c2nc(CCOCC3CC3)no2)cc1C (stereo not drawn) | inconclusive: 89.1 µM [inhibitor, partial curve, poor fit] | – | –
COc1ccc(CNc2cc3c(cn2)CN(Cc2ccccc2)CCN3)cc1OC | active: 63.1 µM | – | –
COc1ccc(C(=O)N2CCC3(CC2)CC(c2ccccc2)=NO3)cc1 | inconclusive: 50.1 µM [inhibitor, partial curve, poor fit] | – | –
COc1cccc([S+](=O)([O-])N2CCC(N3C(=O)c4c(c(C)nn4-c4ccccc4)C3C3CC3)C2)c1 (stereo not drawn) | inconclusive: 44.7 µM [inhibitor, partial curve] | – | –
Cc1ncsc1CCC(=O)N1CCN(CCCOc2ccc(F)cc2)CC1 | inconclusive: 79.4 µM [inhibitor, partial curve] | – | –
C[S+](=O)([O-])N1Cc2ccccc2OC2(CCN(C(=O)c3ccc4[nH]ccc4c3)CC2)C1 | – | inactive: -3.38% | –
O=C(Cc1ccc(F)cc1)N1CCC(C(=O)N2CCC(c3nc4ccncc4[nH]3)C2)CC1 (stereo not drawn) | – | inactive: -28.8% | –
OC1(c2cccc(C(F)(F)F)c2)CCN(Cc2nc(COc3ccccc3)no2)CC1 | inconclusive: 39.8 µM [inhibitor, partial curve, poor fit] | – | –
O=[S+]1([O-])NC2(CCN(Cc3c[nH]c4ccccc34)CC2)COc2ccccc21 | – | inactive: -28.4% | –
O=C1Nc2cnccc2C2(CCN(C(=O)c3ccccc3F)C2)O1 (stereo not drawn) | – | inactive: -11.1% [at 172 µM] | –
CCOC(=O)C[C@@H]1C[C@@H](C(C)C)[C@H](CNC(=O)c2ccncc2)C=C1C | active: 89.1 µM | – | –
COc1ccc(C(=O)N2CCN(c3cc(-c4ccc(Cl)cc4)[nH]n3)CC2)cc1F | inconclusive: 31.6 µM [inhibitor, partial curve, poor fit] | – | –
CC(C)(O)CN1CCC(=O)N(Cc2ccccc2)CCc2ccccc21 | inconclusive: 22.4 µM [inhibitor, partial curve, poor fit] | – | –

Compound | Potency | activity change, negative = cytotoxicity | outcome
Cc1ccc(-c2cn3c(n2)CO[C@@H](CNCc2ccc(S(C)(=O)=O)cc2)C3)cc1 | inconclusive: 79.4 µM [inhibitor, partial curve] | – | –
COc1ccc(CNC2(Cc3cc(-c4ccc(OC)cc4)on3)COC2)cc1 | inconclusive: 112 µM [inhibitor, partial curve, poor fit] | – | –
COc1ccc(C(=O)N2CCC(Cc3nc(-c4ccc(F)cc4)no3)CC2)cc1F | inconclusive: 56.2 µM [inhibitor, partial curve, poor fit] | – | –
CCC[C@H]1CN(S(=O)(=O)c2ccc(CC)s2)C[C@@H]1N | inconclusive: 50.1 µM [inhibitor, partial curve, poor fit] | – | –
O=C(c1c(-c2ccccc2)cc(=O)n2c1CCC2)N1CCCC1 | – | inactive: -1.34% | –
O=C(Cc1ccccc1)NC1CCCc2c1[nH]c1c(Cl)cccc21 (stereo not drawn) | inconclusive: 79.4 µM [inhibitor, partial curve, poor fit] | – | –
COc1ccc(-c2nc(C3CN(C(=O)NCc4ccccc4)C3)no2)cc1 | inconclusive: 31.6 µM [inhibitor, partial curve, poor fit] | – | –
COc1cc(F)ccc1-c1cnc2n[nH]c(-c3ccccc3)c2n1 | inconclusive: 79.4 µM [inhibitor, partial curve, poor fit] | – | –
Cc1nc2ccc(C(=O)N3CCCC(C)(Cc4ccc5c(c4)OCO5)C3)cc2o1 (stereo not drawn) | inconclusive: 35.5 µM [inhibitor, partial curve, poor fit] | – | –
Cc1ccc(C)c(CN2C(=O)NC3(CCN(C(=O)c4ccccn4)CC3)C2=O)c1 | – | inactive: -15.2% | –
O=C(O)CCC(=O)N[C@H]1CO[C@H]2[C@@H]1OC[C@@H]2n1nnnc1Oc1ccc(-n2ccnc2)cc1 | – | – | inactive
CSc1cccc(NC(=O)COc2cccc(-c3nnc4n3CCCC4)c2)c1 | inconclusive: 79.4 µM [inhibitor, single point] | – | –
N#Cc1ccc(S(=O)(=O)N2CC(n3cc(C(=O)N4CCOCC4)nn3)C2)cc1 | – | inactive: 1.92% | –
CCc1cccc(NC(=O)N2CCC(c3noc(COc4ccc(F)cc4)n3)CC2)c1 | inconclusive: 89.1 µM [inhibitor, single point] | – | –
CC1Oc2ccc(NC(=O)C3CCCC3)cc2CN(Cc2ccccc2Cl)C1=O (stereo not drawn) | inconclusive: 39.8 µM [inhibitor, partial curve, poor fit] | – | –
COc1cccc(CN2CCN3C(=O)N(C4CCCCC4)C[C@H]3C2)c1 | inconclusive: 100 µM [inhibitor, partial curve, poor fit] | – | –
Cn1ccnc1CN1C[C@@H](C(=O)O)C[C@@H](C(=O)NCc2ccncc2)C1 | – | inactive: 2.98% | –
COc1ccc(-c2noc([C@@H]3CCCN3C(=O)c3ccc(C(C)(C)C)cc3)n2)cc1 | inconclusive: 50.1 µM [inhibitor, partial curve, poor fit] | – | –
O=C(Cn1cnnn1)N1CC(c2noc(C3CCCN3CC3CC3)n2)C1 (stereo not drawn) | – | inactive: 3.82% | –
Cc1cccc(CNC(=O)CC2CCOCC2)c1 | – | inactive: 5.5% | –
Cc1noc(C)c1[S+](=O)([O-])NC1CCCN(c2ccc3nnc(C)n3n2)C1 (stereo not drawn) | inconclusive: 50.1 µM [inhibitor, partial curve, poor fit] | – | –

Reference: PubChem BioAssay AID1345083 (National Center for Advancing Translational Sciences (NCATS), 2018)
